Laboratory results from PubChem BioAssay AID588453 (National Center for Advancing Translational Sciences (NCATS), 2011).
Among all 390,000 compounds or so, about 4,000 (1%) were called active. The shares of active, inactive and inconclusive entries below differ from those in the screen. Calls follow the shape of the dose curve; as a rule, active = well fitted inhibition curve with a large enough effect; inconclusive = small, poorly fitted or top-dose-only effect; inactive = no such curve, though single readings can be large or run the other way. A potency beside an inconclusive call is a rough fit, not a confirmed value.

target: Thioredoxin reductase 1, cytoplasmic (Rattus norvegicus) (UniProt O89049); test: qHTS Assay for Inhibitors of Mammalian Selenoprotein Thioredoxin Reductase 1 (TrxR1): qHTS; details: recombinant rTrxR1, NADPH fluorescence consumption, selenite substrate; series mostly up to 114 µM; activity change, negative = inhibition: at the top concentration; also: nearly all actives have a fitted effect of over 65% in size
In short: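 Rat TrxR1 (90 nM in the dispensed reagent) was pre-reduced with 400 uM NADPH for 5 min at room temperature, then incubated with compound for 15 min. After 400 uM selenite was added, NADPH fluorescence (Ex 340/Em 450 nm) was followed for 8 min.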
% is scaled to controls: 0 for no effect and ±100 for the full control effect; potency is read from the fitted curve at half-maximal effect; tags tell the direction and shape of the fitted curve.

Chain of UniProt O89049 (O89049 whole entry, looked up): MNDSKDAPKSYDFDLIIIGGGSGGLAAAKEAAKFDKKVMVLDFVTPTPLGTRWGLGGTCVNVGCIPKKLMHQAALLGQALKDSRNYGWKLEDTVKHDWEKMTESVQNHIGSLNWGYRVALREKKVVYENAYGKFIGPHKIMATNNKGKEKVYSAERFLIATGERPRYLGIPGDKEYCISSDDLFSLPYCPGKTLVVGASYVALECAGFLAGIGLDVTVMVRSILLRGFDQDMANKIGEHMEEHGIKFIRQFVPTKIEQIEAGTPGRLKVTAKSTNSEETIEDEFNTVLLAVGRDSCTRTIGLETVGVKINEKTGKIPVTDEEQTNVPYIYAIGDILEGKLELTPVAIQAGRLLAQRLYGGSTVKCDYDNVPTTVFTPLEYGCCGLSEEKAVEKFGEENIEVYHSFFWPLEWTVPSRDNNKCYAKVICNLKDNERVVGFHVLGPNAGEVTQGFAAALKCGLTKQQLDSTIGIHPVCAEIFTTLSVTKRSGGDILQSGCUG

Compound	Potency	activity change, negative = inhibition
COc1ccc(CN2CCNC(=O)C2CC(=O)NCCC2=CCCCC2)c(F)c1 (stereo unspecified)	inconclusive: 50.1 µM [inhibitor, partial curve]	–
S=c1[nH]nc(CSCc2ccccc2Cl)n1-c1ccccc1	–	inactive: 0.935%
CC1Cc2cc(/C(O)=C3/C(=O)C(=O)N(CCN4CCOCC4)C3c3cccc(O)c3)ccc2O1 (stereo unspecified)	inconclusive: 56.2 µM [inhibitor, partial curve, poor fit]	–
Cc1ccc(-c2nc(CN(C)C)cc(CN(C)C)c2O)cc1	inconclusive: 5.01 µM [inhibitor, partial curve]	–
CCS(=O)(=O)N1CCC2(CC1)OC(=O)C(C)=C2C(=O)NCc1cccc(Cl)c1	inconclusive: 28.2 µM [inhibitor, single point]	–
O=C(NNC(=S)Nc1ccc(F)c(Cl)c1)c1ccccc1Br	inconclusive: 12.6 µM [inhibitor, partial curve, poor fit]	–
Cc1ccc(CN2CCN(/N=C/c3cc(Br)cc(Br)c3O)CC2)cc1	–	inactive: 5.3%
CNC(=O)/C=C1\NC(C)(C)Cc2ccccc21	inconclusive: 3.55 µM [inhibitor, full curve, poor fit]	–
O=C(c1ccc2c(c1)N(Cc1ccc(Cl)cc1)C(=O)c1ccccc1S2(=O)=O)N1CCC(Cc2ccccc2)CC1	–	inactive: -2.13%
CC(C)C(=O)Nc1cc2c3c(c1)CCC(=O)N3CCC2	inconclusive: 28.2 µM [inhibitor, full curve, poor fit]	–
Cc1ccc(-n2[nH]c(C)c(/C=N/Nc3ccc([N+](=O)[O-])cc3[N+](=O)[O-])c2=O)cc1C	inconclusive: 35.5 µM [inhibitor, partial curve]	–
CCC(=O)N1c2ccc(S(=O)(=O)N3CCCC3)cc2CC1C (stereo unspecified)	–	inactive: 16.6%
CCOC(=O)N1CCC(NC(=O)c2cc(COc3ccccc3SC)on2)CC1	–	inactive: 5.49%
CN1c2ccsc2C(O)=C(C(=S)Nc2ccccc2)S1(=O)=O	inconclusive: 35.5 µM [inhibitor, partial curve, poor fit]	–
O=C(COc1ccc2ccc(=O)oc2c1)N1CC[C@@]2(O)CCCC[C@H]2C1	inconclusive: 25.1 µM [inhibitor, single point]	–
COc1ccc(OC)c(S(=O)(=O)ON2C(=O)c3ccccc3C2=O)c1	inconclusive: 1.78 µM [inhibitor, full curve, poor fit]	–
CNC(=O)c1ccc(-c2ccc(OC)cc2)s1	inconclusive: 70.8 µM [inhibitor, single point]	–
Cc1ccc(C(=O)N(c2ccccc2)C2CC(C)N(C(=O)c3ccco3)c3ccccc32)cc1 (stereo unspecified)	–	inactive: -4.16% [at 57.1 µM]
O=[N+]([O-])c1ccc2c(c1)nc1n2CCN(c2ccccc2)C1	inconclusive: 79.4 µM [inhibitor, single point]	–
COCc1nc(-c2ccc(-c3ccccc3)nc2OC)no1	–	inactive: 15.9% [at 57.1 µM]
Cc1ccc(C(=O)Nc2ncc3c(n2)CC(c2ccco2)CC3=O)cc1 (stereo unspecified)	inconclusive: 14.1 µM [inhibitor, partial curve, poor fit]	–
C=CCn1c(SCC(=O)c2ccc(O)c(O)c2)nnc1-c1ccc(OC)cc1	inconclusive: 79.4 µM [inhibitor, partial curve, poor fit]	–
COCCN(C(=S)Nc1ccccc1C)C(C)c1ccco1 (stereo unspecified)	–	inactive: 23.7% [at 57.1 µM]
Cc1ccc(CNC(=O)c2nc(S(=O)(=O)Cc3ccc(C)cc3)ncc2Cl)cc1	inconclusive: 0.891 µM [inhibitor, full curve, poor fit]	–

Compound	Potency	activity change, negative = inhibition
COc1ccc(NC(=S)N/N=C/c2cccn2Cc2ccc(F)cc2Cl)cc1	–	inactive: 20.2% [at 57.1 µM]
CCOc1ccc(/C=C/c2nc3ccccc3n2S(=O)(=O)c2cccc(Cl)c2)cc1	–	inactive: 21.9%
O=[N+]([O-])c1ccc(O)c(C=Nc2ccc3c(c2)OCO3)c1	inconclusive: 79.4 µM [inhibitor, partial curve, poor fit]	–
O=c1[nH]c(CS(=O)(=O)c2ccccc2)nc2ccccc12	inconclusive: 28.2 µM [inhibitor, single point]	–
O=c1cc2oc3cc(O)c(O)cc3c(-c3ccccc3O)c-2cc1O	inconclusive: 10 µM [inhibitor, partial curve, poor fit]	–
CCOCCCNc1ncnc2c1[nH]c1ccccc12	–	inactive: -8.79%
O=C(CS(=O)(=O)Cc1ccccc1)Nc1nc2c(s1)CCCC2	–	inactive: -5.49%
NC(=O)C1CCN(C(=O)c2ccc(CS(=O)(=O)c3c(Cl)cccc3Cl)o2)CC1	inconclusive: 79.4 µM [inhibitor, partial curve]	–
COCCNC(=O)/C(C#N)=C/c1cccc(NC(=O)c2ccccc2Cl)c1	inconclusive: 50.1 µM [inhibitor, single point]	–
O=C(Nc1cccc(F)c1)[C@@H](c1ccccc1)N1Cc2ccccc2C1=O	–	inactive: 17.1%
CCOC(=O)CCNCc1ccc(F)cc1	–	inactive: 16.1% [at 57.1 µM]
CCN(CC(=O)Nc1ccc2c(c1)OCCO2)C(=O)c1ccc(Cl)cc1Cl	–	inactive: 8.68%
Cc1ccc(C(=O)O/N=C(\N)c2ccccn2)cc1C	–	inactive: -10.6% [at 57.1 µM]
O=S(=O)(/N=C(\Sc1ccc(Cl)cc1)c1ccccc1)c1ccccc1	inconclusive: 10 µM [inhibitor, full curve, poor fit]	–
COc1ccc(/C=C(/C#N)C(=O)Nc2cccc([N+](=O)[O-])c2)cc1C(=O)O	inconclusive: 50.1 µM [inhibitor, partial curve, poor fit]	–
Cc1cccc(-n2c(C)nnc2SCC(=O)NC(C)c2ccco2)c1 (stereo unspecified)	–	inactive: 10.2%
COc1ccc(C(c2c(O)nc(SC)n(C)c2=O)c2c(O)nc(SC)n(C)c2=O)cc1O	inconclusive: 70.8 µM [inhibitor, partial curve]	–
CC1CC2(CC(C)(C(=O)CSc3n[nH]c(-c4ccccc4Cl)n3)OC2=O)C(=O)O1 (stereo unspecified)	inconclusive: 14.1 µM [inhibitor, partial curve, poor fit]	–
CCOc1cc(C(=O)NC(=S)Nc2cccnc2)cc(OCC)c1OCC	inconclusive: 39.8 µM [inhibitor, single point]	–
O=C(O)c1cc(-c2ccco2)nc2ccccc12	inconclusive: 1.26 µM [inhibitor, full curve, poor fit]	–
Cc1cccc(NC(=O)CSc2ccc(-c3ccco3)nn2)c1C	active: 12.6 µM	–
CCOC(=O)c1c(NC(=O)C(C)Oc2ccc(Cl)c(C)c2)sc2c1CCCC2 (stereo unspecified)	–	inactive: 6.34%
Cc1c(C#N)c(O)[nH]c(=O)c1N=Nc1ccc(Br)cc1C(=O)O	inconclusive: 50.1 µM [inhibitor, partial curve, poor fit]	–
COc1ccc(C(=O)NNC2=CC(=O)CC(C)(C)C2)cc1OC	inconclusive: 31.6 µM [inhibitor, partial curve, poor fit]	–

Compound	Potency	activity change, negative = inhibition
CCOC(=O)c1ccccc1NC(=O)c1nn(C)c2c1COc1ccccc1-2	inconclusive: 79.4 µM [inhibitor, partial curve]	–
O=C(NCCN1CCCCCC1)c1ccc(N2CCCC2=O)cc1	inconclusive: 39.8 µM [inhibitor, single point]	–
CCCN1CCN(CCCNC(=O)Cn2c(-c3cccs3)cc3cc(Cl)ccc32)CC1	–	inactive: 22%
Cc1ccc(C(=O)N2c3ccccc3CC2C)o1 (stereo unspecified)	–	inactive: 11% [at 57.1 µM]
O=C1c2oc3ccccc3c(=O)c2C(c2cccs2)N1CCCN1CCOCC1 (stereo unspecified)	active: 39.8 µM	–
CCCCOC(=O)Sc1nc2ccccc2o1	inconclusive: 31.6 µM [inhibitor, partial curve, poor fit]	–
c1csc(CNc2ccc3c(c2)OCCO3)c1	inconclusive: 44.7 µM [inhibitor, partial curve]	–
COc1ccc(-n2c(CCC(=O)O)ccc2-c2ccccc2)c(OC)c1	inconclusive: 20 µM [inhibitor, full curve]	–
Cc1cccc(N(C(=O)c2ccc(CN3CCOCC3)o2)C(C(=O)NC(C)(C)C)c2ccc(F)cc2)c1 (stereo unspecified)	inconclusive: 70.8 µM [inhibitor, single point]	–
O=C(/C=C/c1ccco1)Nc1cccnc1	inconclusive: 79.4 µM [inhibitor, partial curve]	–
COc1ccc(/C=C2\C(=O)N(c3c(Cl)cc(Cl)cc3Cl)N=C2NC(=O)c2cccc([N+](=O)[O-])c2)cc1	active: 4.47 µM	–
C=CCn1c(-c2cccnc2Cl)nc2ccccc21	–	inactive: 51.6%
CCOc1ccc(CCNC(=O)CSc2ncn[nH]2)cc1OCC	inconclusive: 89.1 µM [inhibitor, single point]	–
Cc1cc(C)c2nc(NC(=O)C3CC(=O)N(Cc4ccco4)C3)sc2c1 (stereo unspecified)	–	inactive: 12.6% [at 57.1 µM]
CN(C)c1ccc(/C=N/n2c(-c3ccccc3Br)n[nH]c2=S)cc1	inconclusive: 79.4 µM [inhibitor, single point]	–
O=[N+]([O-])c1ccc(/C=N/NC(=S)Nc2ccccc2)o1	active: 17.8 µM	–
Cc1coc2c(C)c3oc(=O)c(CC(=O)N[C@@H](CC(C)C)C(=O)O)c(C)c3cc12	–	inactive: -2.17%
Cc1ccc(/C(O)=C2/C(=O)C(=O)OC2c2ccc(Cl)cc2)cc1 (stereo unspecified)	inconclusive: 31.6 µM [inhibitor, partial curve, poor fit]	–
CCOc1ccc(NC(=O)NCC2CCN(c3ccc(OC)cc3)C2)cc1 (stereo unspecified)	–	inactive: -9.12% [at 57.1 µM]
OC(CN1CCC(Cc2ccc(F)cc2)CC1)c1ccc(Cl)cc1 (stereo unspecified)	inconclusive: 0.752 µM [inhibitor, full curve, poor fit]	–
Nc1c(C(=O)Nc2ccccc2)sc2nc(-c3ccco3)ccc12	active: 3.98 µM	–
Fc1ccc(NC(=S)Nc2ccccc2OC(F)F)cc1Cl	inconclusive: 31.6 µM [inhibitor, full curve]	–
O=C1CN(C(=O)CSc2nnc(C3CC3)n2-c2ccccc2)c2ccccc2N1	inconclusive: 63.1 µM [inhibitor, single point]	–
